Source: PubChem BioAssay AID2675 (National Center for Advancing Translational Sciences (NCATS), 2010)
Out of some 280,000 compounds screened, about 100 (0.036%) were called active. The shares of active, inactive and inconclusive entries below differ from those in the screen. Calls follow the shape of the dose curve; as a rule, active = well fitted inhibition curve with a large enough effect in the signal ratio, with a control signal flat (not every such curve was filed as active); inconclusive = small, poorly fitted or top-dose-only effect, or effect the other way, or a change in a side signal; inactive = no such curve, though single readings can be large or run the other way; the % refers to the signal ratio. Where the call is inconclusive, the potency comes from a doubtful curve fit. “Side channel” marks fits to a control or component signal instead of the main read-out.
% is scaled to controls: 0 for no effect and ±100 for the full control effect; potency is read from the fitted curve at half-maximal effect; tags tell the direction and shape of the fitted curve or compound fluorescence and quenching.

Each molecule was assayed against Muscleblind-like protein 1 (Homo sapiens) (UniProt Q9NR56) (assay: qHTS Assay for Inhibitors of MBNL1-poly(CUG) RNA binding). Details: TR-FRET MBNL1-His/biotin-(CUG)12 binding, 665/545 ratio; activity change, negative = inhibition: at 57.5 µM (top of the series).
UniProt Q9NR56, sequence (Q9NR56 whole entry, looked up): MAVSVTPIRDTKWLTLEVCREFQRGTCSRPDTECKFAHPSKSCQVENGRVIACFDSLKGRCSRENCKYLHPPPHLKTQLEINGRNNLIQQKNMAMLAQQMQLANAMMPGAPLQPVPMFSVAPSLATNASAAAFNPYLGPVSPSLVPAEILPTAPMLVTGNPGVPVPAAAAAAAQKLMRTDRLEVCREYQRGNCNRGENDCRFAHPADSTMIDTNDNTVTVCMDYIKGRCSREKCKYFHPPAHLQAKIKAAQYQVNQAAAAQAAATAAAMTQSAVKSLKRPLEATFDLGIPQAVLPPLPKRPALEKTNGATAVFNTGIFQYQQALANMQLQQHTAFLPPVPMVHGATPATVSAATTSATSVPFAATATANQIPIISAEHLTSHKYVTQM
Outline: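 Compound titration spanned 92 nM–58 uM against the MBNL1-His/biotin-(CUG)12 complex. After 60 min at room temperature with 5 nM streptavidin-XL665 and 0.055 ng/ul terbium anti-His, ratiometric 665/545 nm emission (Ex 340 nm) normalized to controls.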
`NS(=O)(=O)c1ccc(NC(=O)COC(=O)COc2ccc(Cl)cc2)cc1` was tested, and the “activity change, negative = inhibition” value was inactive: -8.96%.
With `COC(=O)C(=NNc1c(C)n(C)n(-c2ccccc2)c1=O)C(=O)OC` the Potency was inconclusive: 14.1 µM [quencher, side channel, partial curve, poor fit].
`CCOC(=O)c1oc2ccc(S(=O)(=O)n3nc(-c4ccc(OC)cc4)cc3N)cc2c1C` was tested, and the Potency was inconclusive: 3.98 µM [fluorescent, side channel, full curve, poor fit].
With `CNC(=O)C1CCN(S(=O)(=O)c2c(C)noc2/C=C/c2cccc(OC)c2)CC1` the Potency was inconclusive: 14.1 µM [quencher, side channel, partial curve].
`O=C(c1ccc([N+](=O)[O-])cc1)N1CCN(C2=NS(=O)(=O)c3ccccc32)CC1` was tested, and the Potency was inconclusive: 15.8 µM [quencher, side channel, partial curve].
For `CCSc1ccccc1C(=O)N1CCN(c2ccc([N+](=O)[O-])cc2)CC1`, the Potency was inconclusive: 10 µM [quencher, side channel, partial curve].
With `O=C(CCCC(=O)NC1CCCCC1)Nc1ccc([N+](=O)[O-])cc1` the Potency was inconclusive: 20 µM [quencher, side channel, partial curve].
With `CC(C)C(=O)NC(=S)Nc1c(Cl)ccc2nsnc12` the Potency was inconclusive: 12.6 µM [quencher, side channel, partial curve].
In the case of `O=[N+]([O-])c1ccc(C2CCCC/C2=N/O)c([N+](=O)[O-])c1` (centres undefined), the Potency is reported as inconclusive: 7.94 µM [quencher, side channel, partial curve].
In the case of `Cc1ccc(C(=O)Nc2ccc(Cl)cc2C)c(Cl)c1`, the “activity change, negative = inhibition” value is reported as inactive: -6.41%.
For `COc1ccc2nc(SCc3cccc(C)c3)nc(C)c2c1`, the Potency was inconclusive: 0.0891 µM [fluorescent, side channel, partial curve].
With `Cc1ccc(S(=O)(=O)/C(C#N)=C/c2ccccc2OCc2ccccc2)cc1` the Potency was inconclusive: 0.1 µM [fluorescent, side channel, full curve].
`C=CCSc1nnc(-c2ccccc2NC(C)=O)c(=O)[nH]1` was tested, and the Potency was inconclusive: 1.58 µM [fluorescent, side channel, full curve, poor fit].
With `CC[n+]1c(/C=C/N(C)c2ccccc2)oc2ccc(F)cc21` the “activity change, negative = inhibition” value was inactive: 24%.
With `CC(=O)N1CCN(c2nc3ccc([N+](=O)[O-])cc3s2)CC1` the Potency was inconclusive: 3.16 µM [quencher, side channel, full curve].
For `O=C(/C=C\Nc1ccc2c(c1)OCO2)c1ccc2c(c1)OCO2`, the “activity change, negative = inhibition” value was inactive: 3.58%.
With `O=C(CCN1C(=O)c2ccc([N+](=O)[O-])cc2C1=O)Nc1ccc(O)cc1C(=O)O` the Potency was inconclusive: 5.62 µM [quencher, side channel, partial curve].
With `CC(C)c1cc[n+](-c2nc([O-])sc2C=O)cc1` the Potency was inconclusive: 14.1 µM [quencher, side channel, partial curve].
With `COc1ccc(C(=O)CC(=O)C(=O)Nc2cc(OC)ccc2OC)cc1` the “activity change, negative = inhibition” value was inactive: -0.788%.
For `O=C1c2ccc([N+](=O)[O-])cc2C(=O)N1c1ccc(Cl)cn1`, the Potency was inconclusive: 15.8 µM [quencher, side channel, partial curve].
In the case of `CCOC(=O)c1cc2c(C)n(-c3ccc(C)cc3)c(C)c2ccc1=O`, the Potency is reported as inconclusive: 12.6 µM [quencher, side channel, partial curve].
For `COc1ccc2[nH]c(C(=O)O)c(CCN3C(=O)c4ccc(C(=O)O)cc4C3=O)c2c1`, the Potency was inconclusive: 25.1 µM [quencher, side channel, partial curve].
For `CC(=O)NCCc1nc2cc(NC(=O)c3ccc([N+](=O)[O-])cc3)ccc2n1C`, the Potency was inconclusive: 12.6 µM [quencher, side channel, partial curve].
`CCOC(=O)C1CN(C(C)(C)C)C(=O)C1=O` (centres undefined) was tested, and the Potency was inconclusive: 100 µM [inhibitor, single point].
In the case of `N=c1c(C(=O)NCC2CCCO2)cc2c(=O)n3ccccc3nc2n1Cc1ccccc1` (centres undefined), the Potency is reported as inconclusive: 8.91 µM [quencher, side channel, partial curve].
`COc1ccc2cc(Br)ccc2c1CC(=O)NC1CC(C)(C)NC(C)(C)C1` was tested, and the Potency was inconclusive: 28.2 µM [quencher, side channel, single point].
In the case of `CCOc1ccc(C2C(C(=O)Nc3ccccc3)=C(C)N=c3s/c(=C/c4cccc(OCC(=O)O)c4)c(=O)n32)cc1` (centres undefined), the Potency is reported as inconclusive: 17.8 µM [quencher, side channel, partial curve].
For `CCn1c(SCC(=O)Nc2sc(C)c(C)c2C#N)nnc1C(C)C`, the “activity change, negative = inhibition” value was inactive: -5.47%.
In the case of `CC(C)(C)c1ccc(NC(=O)Cn2cnc3cc([N+](=O)[O-])ccc3c2=O)cc1`, the Potency is reported as inconclusive: 14.1 µM [quencher, side channel, partial curve].
In the case of `CC1Cc2ccccc2N1C(=O)C1CCCN(S(=O)(=O)c2cccc3nsnc23)C1` (centres undefined), the Potency is reported as inconclusive: 11.2 µM [quencher, side channel, partial curve].
With `COc1ccccc1NCc1ccc([N+](=O)[O-])s1` the Potency was inconclusive: 20 µM [quencher, side channel, single point].
For `Cc1ccc(NC(=S)NCc2ccc3c(c2)cc(C)n3C)c(C)c1`, the “activity change, negative = inhibition” value was inactive: 49.2%.
In the case of `CCOC(=O)Cc1csc(NC(=O)/C=C/c2ccc(OC)cc2)n1`, the Potency is reported as inconclusive: 22.4 µM [quencher, side channel, partial curve].
For `COc1ccc(-c2nc(NC(C)=O)sc2-c2ccc(OC)cc2)cc1`, the Potency was inconclusive: 25.1 µM [fluorescent, side channel, single point].
For `COc1ccc(O)c(/C=N\NC(=O)CCn2nnc3ccccc32)c1`, the Potency was inconclusive: 15.8 µM [quencher, side channel, single point].
With `NS(=O)(=O)c1cc(C(=O)OCC(=O)Nc2ccccc2[N+](=O)[O-])ccc1Cl` the Potency was inconclusive: 17.8 µM [quencher, side channel, partial curve].
With `COC(=O)CSc1[nH]c2ccccc2c1[N+](=O)[O-]` the Potency was inconclusive: 17.8 µM [quencher, side channel, partial curve].
`O=S(=O)(NCc1ccccc1)c1ccc(Br)c2nsnc12` was tested, and the Potency was inconclusive: 12.6 µM [quencher, side channel, partial curve].
With `COc1cccc2sc3ccc(C#CC4(O)CCCCC4)cc3c(=O)c12` the “activity change, negative = inhibition” value was inactive: 7.44%.
`COCCCn1c(SCC(=O)OC2CCCCC2)nnc1-c1ccco1` was tested, and the “activity change, negative = inhibition” value was inactive: -8.85%.
For `CCN1CCCC1CNC(=O)c1ccc(Sc2ccc(F)cc2)c([N+](=O)[O-])c1` (centres undefined), the Potency was inconclusive: 14.1 µM [quencher, side channel, partial curve].
With `CNC(=O)c1ccc(-c2ccc(Cl)c(Cl)c2)s1` the Potency was inconclusive: 14.1 µM [quencher, side channel, single point].
With `Cc1ccc(N2C=Nc3ccc(C)c4nc(C)cc2c34)cc1` the Potency was inconclusive: 22.4 µM [quencher, side channel, partial curve, poor fit].
In the case of `CC(C)[C@H](NC(=O)OC(C)(C)C)C(=O)NCC1CCC(C(=O)N[C@@H](Cc2ccccc2)C(=O)O)CC1` (some centres undefined), the “activity change, negative = inhibition” value is reported as inactive: -15.4%.
In the case of `CCOC(=O)c1ccc(N2C(=O)C(O)=C(C(C)=O)C2c2ccccc2)cc1` (centres undefined), the Potency is reported as inconclusive: 0.562 µM [quencher, side channel, partial curve, poor fit].
`Cc1cc2cc(CNC(=O)c3cccc([N+](=O)[O-])c3)ccc2n1C` was tested, and the Potency was inconclusive: 12.6 µM [quencher, side channel, partial curve].
With `Cc1ccc(C)n1-c1ccc(N2CCOCC2)nc1` the Potency was inconclusive: 17.8 µM [quencher, side channel, partial curve].
`CCc1nnc(NC(=O)Cc2c[nH]c3ccccc23)s1` was tested, and the “activity change, negative = inhibition” value was inactive: -1.33%.
With `N/C(=N\OC(=O)CC1CCCCC1)c1cccc([N+](=O)[O-])c1` the Potency was inconclusive: 17.8 µM [quencher, side channel, partial curve].
For `Cc1csc(NC(=O)c2cc([N+](=O)[O-])cc([N+](=O)[O-])c2)n1`, the Potency was inconclusive: 3.55 µM [quencher, side channel, partial curve].
For `CNc1nc(-c2ccccc2)[n+](-c2ccc(C)cc2)s1`, the “activity change, negative = inhibition” value was inactive: -0.141%.
`Cc1ccc(NC(=O)CSc2cccc[n+]2[O-])c([N+](=O)[O-])c1` was tested, and the Potency was inconclusive: 17.8 µM [quencher, partial curve].
`Cc1c(=O)n(OCc2ccccc2F)c2ccccc2[n+]1[O-]` was tested, and the Potency was inconclusive: 12.6 µM [quencher, side channel, partial curve].
With `Cc1cc(C(=O)NC(=S)Nc2ccccc2N2CCCC2)ccc1[N+](=O)[O-]` the Potency was inconclusive: 0.0794 µM [fluorescent, side channel, full curve].
In the case of `Cn1/c(=N/N=C/c2ccccn2)sc2ccccc21`, the Potency is reported as inconclusive: 39.8 µM [quencher, side channel, partial curve, poor fit].
With `COC(=O)c1ccc(-c2ccc(/C=N/NC(=O)Cc3nnc(N)s3)o2)cc1` the Potency was inconclusive: 5.62 µM [quencher, side channel, partial curve].
In the case of `NNC(=O)c1cccc(COc2cccc(Br)c2)c1`, the “activity change, negative = inhibition” value is reported as inactive: 0.574%.
For `COCC(=O)N1CCCN(c2nc3c(C)cccc3cc2C#N)CC1`, the Potency was inconclusive: 20 µM [quencher, side channel, partial curve].
In the case of `CCOC(=O)C1=C(c2ccccc2)N=C2SCC(=O)N2C1c1ccc(O)c(OC)c1` (centres undefined), the Potency is reported as inconclusive: 39.8 µM [quencher, side channel, single point].
